# According to PubChem BioAssay AID686970 (National Center for Advancing Translational Sciences (NCATS), 2013):
# Screen size: about 360,000 compounds; about 6,000 (1.7%) were called active. Inconclusive means that the source gave no clear call. Such entries were picked first, then a sample of the others. Calls follow the shape of the dose curve; as a rule, active = well fitted cell-killing curve with a large enough effect; inconclusive = small, poorly fitted or top-dose-only effect, or effect the other way; inactive = flat fitted curve, though single readings scatter. Potencies of inconclusive entries are left out as doubtful fits.
# Experiment: qHTS for induction of synthetic lethality in tumor cells producing 2HG: qHTS for the HT-1080-NT fibrosarcoma cell line;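 also: NT is the 2HG producing partner of a matched IDH1 knockdown line; nearly all actives have a fitted effect of over 55% in size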;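 as to activity, negative = less viability: 0% = DMSO-treated cells and -100% = media-only wells without cells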
# Conditions: HT-1080-NT fibrosarcoma viability, CellTiter-Glo ATP luminescence, 48 h; activity, negative = less viability: at 46.1 µM (top of the series) unless noted
# How it was run: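 Viability by CellTiter-Glo luminescence after 48 h compound exposure at 37C of HT-1080-NT cells (750/well, RPMI, 5% FBS). % activity scaled between DMSO wells and medium-only wells, then curve-fitted and categorized by curve class.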
# Potency is read from the fitted curve at half-maximal effect; tags tell the direction and shape of the fitted curve.
SMILES,"activity, negative = less viability",Potency
Cn1c(NCCN(CCO)CCCc2ccc([N+](=O)[O-])cc2)cc(=O)n(C)c1=O,inconclusive: -0.293%,
COc1cc(C(=O)OCC(=O)Nc2ccccc2C(=O)NC2CC2)c([N+](=O)[O-])cc1OC,,inactive
Cc1ccc2nsnc2c1NC(=O)c1ccc([N+](=O)[O-])cc1,,"inconclusive [cytotoxic, partial curve]"
OC1(c2ccc(F)cc2)CCN(Cc2nnnn2Cc2cccs2)CC1,,inactive
Cc1ccc(C(=O)NNC(=O)CSc2nnc(C(C)C)n2C)cc1,,inactive
CN(C(=O)CN1CCN(c2ccccc2F)CC1)C1CCCc2ccccc21 (stereo unspecified),,inactive
N#Cc1ccc(/C=C\c2nccc3c2[nH]c2ccccc23)cc1,,active: 29.1 µM
Cc1sc(NC(=O)c2sc3nc4c(C)cccc4cc3c2N)c(C#N)c1C,,inactive
O=S(=O)(c1ccccc1)N1CCN=C1SCc1ccc(Cl)c(Cl)c1,inconclusive: -35.9% [cytotoxic],
COc1ccccc1CCn1cnc(Cc2ccccc2)c1C(C)C,,"inconclusive [cytotoxic, single point]"
CN1CCc2c(c3ccccc3n2Cc2ccccc2)C1,,"inconclusive [cytotoxic, partial curve]"
COc1ccc(NC(=O)C2CC(=O)n3cnnc3S2)cc1 (stereo unspecified),,inactive
COc1ccc(Oc2nc(-c3ccncc3)nc3ccccc23)cc1,,"inconclusive [rising, single point]"
CCOC(=O)[C@]12CCCC=C1N(CCC1=CCCCC1)C(=O)[C@H](CC(=O)NCC1CCCCC1)C2,,"inconclusive [cytotoxic, single point]"
CC(C)C[C@H](NC(=O)c1[nH]cnc1C(=O)N[C@@H](C)C(=O)OC(C)(C)C)C(=O)OC(C)(C)C,,"inconclusive [cytotoxic, single point]"
COc1ccc(CCC(C)NC2C3CC4CC(C3)CC2C4)cc1 (stereo unspecified),inactive: -13.1% [at 9.24 µM],
Cc1ccc(O)c(Nc2c3ccccc3nc3ccccc23)c1,,active: 23.1 µM
O=C(OCc1cccc(C(F)(F)F)c1)c1ccc[nH]c1=O,,inactive
COc1ccc(/C=N/NC(N)=S)cc1,,"inconclusive [rising, partial curve, poor fit]"
COc1cc(OC)cc(-c2c(-c3cccs3)c3cc(-c4cnc(N)nc4)ccc3n2C)c1,,"inconclusive [cytotoxic, single point]"
CCOC(=O)c1ccc(NC(=O)c2nc[nH]c2C(=O)N[C@H](C)c2ccccc2)cc1,,"inconclusive [cytotoxic, single point]"
CN(Cc1ccc(Cl)cc1Cl)C(=O)CNC(=O)c1ccco1,,inactive
Fc1ccc(C(c2ccc(F)cc2)N2CCN(C/C=C/c3ccccc3)CC2)cc1,,"inconclusive [cytotoxic, single point]"
CC(C)C(=O)Nc1cccc(NC(=S)NC(=O)c2ccc(Cl)cc2)c1,,"inconclusive [cytotoxic, single point]"

SMILES,"activity, negative = less viability",Potency
O=C(Nc1ccc(Cl)c(Cl)c1)c1cccc(S(=O)(=O)NCc2cccnc2)c1,,active: 7.31 µM
O=C(CN1CCN(S(=O)(=O)c2ccc(Br)cc2)CC1)N/N=C/c1ccc(Br)s1,,inactive
Cc1csc(NC(=O)c2ccc(Cn3nc(C)c(Br)c3C)o2)n1,,"inconclusive [cytotoxic, full curve, poor fit]"
O=C(c1cnn2c(C(F)(F)F)cc(-c3ccccc3)nc12)N1CCCCC1c1cccnc1 (stereo unspecified),,inactive
O=[N+]([O-])c1ccc(-c2ccc(S(=O)(=O)NCCN3CCCC3)cc2)cc1,,active: 18.4 µM
COc1ccc(OC)c(Nc2nc(N)nc(CCl)n2)c1,,"inconclusive [cytotoxic, partial curve, poor fit]"
Cc1cc(F)ccc1C(O)c1ncc(-c2ccc(Oc3ccccc3)cc2)[nH]1 (stereo unspecified),,"inconclusive [cytotoxic, partial curve]"
Clc1ccc(-n2ncc3c(NCC4CCCO4)ncnc32)cc1 (stereo unspecified),,"inconclusive [cytotoxic, single point]"
COc1cc2nc(=S)n3[nH]c(CCn4nc(C)cc4C)nc3c2cc1OC,,"inconclusive [cytotoxic, single point]"
CCN1CCN(c2ccc(NC(=O)c3cccc(F)c3)cc2Cl)CC1,,"inconclusive [cytotoxic, partial curve, poor fit]"
O=C(Nc1cc(S(=O)(=O)N2CCOCC2)ccc1Cl)C(=O)c1c(-c2ccccc2)cc2ccccn12,,inactive
O=c1cc(N2CCCCC2)c(-c2ccccc2)nn1Cc1ccccc1Cl,,"inconclusive [cytotoxic, single point]"
CC(O)/C=C/c1ccc2ccccc2n1 (stereo unspecified),,"inconclusive [cytotoxic, single point]"
COc1ccc(-c2nc3ccc(C)cn3c2NCc2ccccc2)cc1SC1CCCCC1,,"inconclusive [cytotoxic, partial curve]"
CC1=C(C(=O)N(C(C)C)C(C)C)CC(CC(=O)NCc2cccc3ccccc23)C(=O)N1Cc1ccc(C(C)(C)C)cc1 (stereo unspecified),,"inconclusive [cytotoxic, single point]"
N#Cc1cnc2cc(-c3ccccc3)nn2c1N,,"inconclusive [cytotoxic, single point]"
O=C(NC(c1ccc(-c2ccccc2)cc1)c1cnccn1)C1CCN(CCCOc2ccccc2)CC1 (stereo unspecified),,"inconclusive [cytotoxic, single point]"
Cc1cccc(NC(=O)NCc2cccnc2)c1C,,inactive
CC(=O)c1ccc(Nc2nc(C(N)C3CCCCC3)cs2)cc1 (stereo unspecified),,"inconclusive [cytotoxic, partial curve]"
COc1ccccc1Cc1c(C2CCCCC2)nc2ccc(Br)cn12,,"inconclusive [cytotoxic, single point]"
CCN(C[C@H]1N[C@@](Cc2ccccc2)(C(=O)OC)[C@H]2C(=O)N(C)C(=O)[C@@H]12)S(=O)(=O)c1ccc(OC)cc1,,inactive
O=C(O)c1cc(O)c2c(c1)C(=O)c1cccc(O)c1C2=O,,"inconclusive [cytotoxic, single point]"
O=C1C=CC(=O)N1c1ccc(OC(F)F)cc1,,"inconclusive [cytotoxic, single point]"
O=C(NCc1ccncc1)c1cccc(S(=O)(=O)Nc2ccc(SC(F)F)cc2)c1,,"inconclusive [cytotoxic, single point]"

SMILES,"activity, negative = less viability",Potency
CCN(CC(=O)NCc1ccc(Cl)cc1)C(=O)COc1cccc(Cl)c1,,"inconclusive [cytotoxic, partial curve]"
COc1ccc(C=NNc2nc3ccccc3s2)cc1,,inactive
CC(C)(C)c1cc(/C=C2\NC(=O)NC2=O)cc(C(C)(C)C)c1O,,"inconclusive [cytotoxic, single point]"
O=C(Cc1coc2ccc3ccccc3c12)N1CCc2ccccc21,inconclusive: 0.362%,
N#C/C(=C\c1cccc(Cl)c1)C(=O)c1ccccc1,,inactive
COc1ccc(OCC(O)CN2CCC(CN3C(=O)c4cccc5cccc(c45)C3=O)CC2)cc1 (stereo unspecified),,active: 23.1 µM
CCCNC(=O)c1nnsc1S(=O)c1ccc(Cl)cc1 (stereo unspecified),,active: 18.4 µM
COc1ccc(C(=O)NCCc2nnc(SCC(=O)Nc3ccc(Br)cc3)n2C)cc1,,"inconclusive [cytotoxic, partial curve]"
COc1ccccc1C1c2[nH]c3ccccc3c2C[C@H]2C(=O)N(C3CCN(Cc4ccccc4)CC3)CC(=O)N12 (stereo partly specified),,"inconclusive [cytotoxic, single point]"
Cc1ccccc1-n1nnc2c(=O)oc3ccccc3c21,,"inconclusive [cytotoxic, single point]"
Cc1ccc(C)c(NC(=O)C2CCCN2C(=O)NC2CCCCC2)c1 (stereo unspecified),,inactive
COc1ccccc1Nc1ccc([N+](=O)[O-])cn1,,"inconclusive [rising, partial curve]"
CC1CC(C)CN(C(=O)CSc2nc(Cc3cccs3)nc3ccccc23)C1 (stereo unspecified),,"inconclusive [cytotoxic, single point]"
Cc1ccc(NC(=O)NCC2CCN(Cc3cccc(Cl)c3)CC2)cc1Cl,,active: 11.6 µM
Cc1cccc(-n2c(N)c(C(=O)NCCN3CCOCC3)c3nc4ccccc4nc32)c1,,"inconclusive [cytotoxic, single point]"
CCC(C)Nc1nc(C)nc2c1oc1ccccc12 (stereo unspecified),,inactive
COC(=O)[C@]12CCCCC=C1N(CCC1=CCCCC1)C(=O)[C@H](CC(=O)NCCCCc1ccccc1)C2,,"inconclusive [cytotoxic, single point]"
COc1ccccc1NC(=O)CN(Cc1ccco1)C(=O)c1ccc(-n2nc(C)cc2C)cc1,,inactive
Cc1ccc(-n2cc(CNCCN3CCOC3=O)c(-c3cccc(C)c3)n2)cc1,,"inconclusive [cytotoxic, single point]"
Cc1c2c(nc3ccccc13)OCC2,,"inconclusive [cytotoxic, single point]"
N#Cc1c(Cl)nsc1NN,,"inconclusive [cytotoxic, single point]"
CCOc1cc(CNCCc2ccc(S(N)(=O)=O)cc2)ccc1OCc1ccc(Cl)cc1,,"inconclusive [cytotoxic, single point]"
CCOC(=O)c1cn(-c2c(Cl)cccc2Cl)c2cc(Cl)c([N+](=O)[O-])cc2c1=O,,"inconclusive [cytotoxic, single point]"
